# Measured values published in the supplement of paper PMC8728848.
# The other results are listed elsewhere or left out.
# B1: Banana lectin (Musa acuminata) (protein)
# chain: MNGAIKVGAWGGNGGSAFDMGPAYRIISVKIFSGDVVDGVDVTFTYYGKTETRHYGGSGGTPHEIVLQEGEYLVGMAGEVANYHGAVVLGKLGFSTNKKAYGPFGNTGGTPFSLPIAAGKISGFFGRGGKFLDAIGVYLEPLEHHHHHH
# Assays:
# Assay in all cases: glycan array binding signal (z-score within array); higher = stronger binding
# Conditions in all cases: glycan notation: IUPAC condensed, linker removed
# [1] = target: Gal(b1-4)GalNAc(b1-3)[Fuc(a1-2)]Gal(b1-4)GlcNAc
# Method in brief: (§1)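 Columns mapping to the same glycan were averaged after glycan names were converted to IUPAC-condensed notation. The data come from 3228 arrays in the Consortium for Functional Glycomics database, limited to those with an available protein sequence. Binding is reported as a within-array Z-score averaged across arrays of one protein sequence and across linkers.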
# Gal(b1-4)Glc = target: Gal(b1-4)Glc
# Method in brief: as §1
# Gal(b1-4)Glc6S = target: Gal(b1-4)Glc6S
# Method in brief: as §1
# Gal(b1-4)GlcNAc = target: Gal(b1-4)GlcNAc
# Method in brief: as §1
# [2] = target: Gal(b1-4)GlcNAc(a1-6)Gal(b1-4)GlcNAc
# Method in brief: as §1
# Gal(b1-4)GlcNAc(b1-2)Man = target: Gal(b1-4)GlcNAc(b1-2)Man
# Method in brief: as §1
# [3] = target: Gal(b1-4)GlcNAc(b1-2)Man(a1-3)Man(b1-4)GlcNAc(b1-4)GlcNAc
# Method in brief: as §1
# [4] = target: Gal(b1-4)GlcNAc(b1-2)Man(a1-3)[Gal(b1-4)GlcNAc(b1-2)Man(a1-6)]Man(b1-4)GlcNAc(b1-4)GlcNAc
# Method in brief: as §1
# [5] = target: Gal(b1-4)GlcNAc(b1-2)Man(a1-3)[Gal(b1-4)GlcNAc(b1-2)Man(a1-6)]Man(b1-4)GlcNAc(b1-4)[Fuc(a1-6)]GlcNAc
# Method in brief: as §1
# [6] = target: Gal(b1-4)GlcNAc(b1-2)Man(a1-3)[Gal(b1-4)GlcNAc(b1-2)Man(a1-6)][Gal(b1-4)GlcNAc(b1-4)]Man(b1-4)GlcNAc(b1-4)[Fuc(a1-6)]GlcNAc
# Method in brief: as §1
# [7] = target: Gal(b1-4)GlcNAc(b1-2)Man(a1-3)[Gal(b1-4)GlcNAc(b1-2)Man(a1-6)][GlcNAc(b1-4)]Man(b1-4)GlcNAc(b1-4)[Fuc(a1-6)]GlcNAc
# Method in brief: as §1
# [8] = target: Gal(b1-4)GlcNAc(b1-2)Man(a1-3)[GlcNAc(b1-2)Man(a1-6)]Man(b1-4)GlcNAc(b1-4)GlcNAc
# Method in brief: as §1
# [9] = target: Gal(b1-4)GlcNAc(b1-2)Man(a1-3)[GlcNAc(b1-4)][Gal(b1-4)GlcNAc(b1-2)Man(a1-6)]Man(b1-4)GlcNAc(b1-4)GlcNAc
# Method in brief: as §1
# [10] = target: Gal(b1-4)GlcNAc(b1-2)Man(a1-3)[Man(a1-6)]Man(b1-4)GlcNAc(b1-4)GlcNAc
# Method in brief: as §1
# [11] = target: Gal(b1-4)GlcNAc(b1-2)Man(a1-6)Man(b1-4)GlcNAc(b1-4)GlcNAc
# Method in brief: as §1
# [12] = target: Gal(b1-4)GlcNAc(b1-2)Man(a1-6)[GlcNAc(b1-2)Man(a1-3)]Man(b1-4)GlcNAc(b1-4)GlcNAc
# Method in brief: as §1
# [13] = target: Gal(b1-4)GlcNAc(b1-2)Man(a1-6)[GlcNAc(b1-2)Man(a1-3)]Man(b1-4)GlcNAc(b1-4)[Fuc(a1-6)]GlcNAc
# Method in brief: as §1
# [14] = target: Gal(b1-4)GlcNAc(b1-2)Man(a1-6)[Man(a1-3)]Man(b1-4)GlcNAc(b1-4)GlcNAc
# Method in brief: as §1
# [15] = target: Gal(b1-4)GlcNAc(b1-2)Man(a1-6)[Man(a1-3)]Man(b1-4)GlcNAc(b1-4)[Fuc(a1-6)]GlcNAc
# Method in brief: as §1
# [16] = target: Gal(b1-4)GlcNAc(b1-2)[Gal(b1-4)GlcNAc(b1-4)]Man(a1-3)[Fuc(a1-3)[Gal(b1-4)]GlcNAc(b1-2)Man(a1-6)]Man(b1-4)GlcNAc(b1-4)GlcNAc
# Method in brief: as §1
# [17] = target: Gal(b1-4)GlcNAc(b1-2)[Gal(b1-4)GlcNAc(b1-4)]Man(a1-3)[Gal(b1-4)GlcNAc(b1-2)Man(a1-6)]Man(b1-4)GlcNAc(b1-4)GlcNAc
# Method in brief: as §1
# [18] = target: Gal(b1-4)GlcNAc(b1-2)[Gal(b1-4)GlcNAc(b1-4)]Man(a1-3)[Gal(b1-4)GlcNAc(b1-2)[Gal(b1-4)GlcNAc(b1-6)]Man(a1-6)]Man(b1-4)GlcNAc(b1-4)GlcNAc
# Method in brief: as §1
binder,measurement,setting,value
B1,glycan array binding signal (z-score),[1],-0.184
same,glycan array binding signal (z-score),Gal(b1-4)Glc,-0.194
same,glycan array binding signal (z-score),Gal(b1-4)Glc6S,-0.181
same,glycan array binding signal (z-score),Gal(b1-4)GlcNAc,-0.22
same,glycan array binding signal (z-score),[2],-0.234
same,glycan array binding signal (z-score),Gal(b1-4)GlcNAc(b1-2)Man,-0.193
same,glycan array binding signal (z-score),[3],-0.113
same,glycan array binding signal (z-score),[4],-0.459
same,glycan array binding signal (z-score),[5],-0.604
same,glycan array binding signal (z-score),[6],-0.226
same,glycan array binding signal (z-score),[7],-0.603
same,glycan array binding signal (z-score),[8],-0.068
same,glycan array binding signal (z-score),[9],-0.204
same,glycan array binding signal (z-score),[10],0.185
same,glycan array binding signal (z-score),[11],-0.211
same,glycan array binding signal (z-score),[12],0.522
same,glycan array binding signal (z-score),[13],-0.526
same,glycan array binding signal (z-score),[14],1.42
same,glycan array binding signal (z-score),[15],-0.732
same,glycan array binding signal (z-score),[16],-0.962
same,glycan array binding signal (z-score),[17],-0.175
same,glycan array binding signal (z-score),[18],-0.555
